From paper PMC6120190, “Identification of two distinct peptide-binding pockets in the SH3 domain of human mixed-lineage kinase 3” (The Journal of Biological Chemistry, 2018) come the findings set out here.

One assay concerns the target T1, GST-MLK3 SH3(43–104) (human, UniProt Q16584 43-104).
T1 construct: also called GST-MLK3 SH3-WT; SH3 WT
T1 sequence (looked up): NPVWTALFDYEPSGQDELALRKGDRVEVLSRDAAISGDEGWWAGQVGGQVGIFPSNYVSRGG
Nature of the assay: ELISA; only the target purified. (An ELISA detects its analyte on a solid surface through an enzyme-linked reagent.)

Assay [1] deals with T2, biotinylated MIP (…-K-biotin).
T2 sequence (peptide, biotin on the added C-terminal K): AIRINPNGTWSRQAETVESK
Nature of the assay: ELISA; both purified.

Assay [2] deals with MLK3 SH3(41–105)-MIP(1–13)W10A fusion protein (human) (UniProt Q16584). Briefly: SEC; both purified. Background: SEC sorts molecules by how far they enter the pores of the column.
The target of assay [3] is MLK3 SH3(41–105)-MIP(1–13)R12A fusion protein (human) (UniProt Q16584). Nature of the assay: SEC; both purified.

These are yes or no findings as the source states them, for the method shown. Some results given as binding are weak or reduced against the parent protein; the word gives no strength. For part of these data: Sequences can lack the tags named with a protein.

B1: phage-displayed MIP, Ala-14 replaced with Val (peptide)
peptide: AIRINPNGTWSRQVETVES
As for B1, the binding entry in the assay with GST-MLK3 SH3(43–104) is “binds”.

B2: GST-MLK2 SH3 (domain or fragment, UniProt Q02779 16-81)
chain: PAGPVWTAVFDYEAAGDEELTLRRGDRVQVLSQDCAVSGDEGWWTGQLPSGRVGVFPSNYVAPGAP
As to B2, the binding entry in assay [1] is “no binding (tested: 0.15 μM)”.

B3: phage-displayed MIP, alanine replacement at Glu-15 (peptide)
peptide: AIRINPNGTWSRQAATVES
With B3, the binding result with GST-MLK3 SH3(43–104) is given as “binds”.

B4: phage-displayed MIP, mutation of Pro-6 to Ala (peptide)
peptide: AIRINANGTWSRQAETVES
Consider B4, for which the binding entry with GST-MLK3 SH3(43–104) was “binds”.

B5: phage-displayed truncated version of MIP (ΔA1) (peptide)
peptide: IRINPNGTWSRQAETVES
On to B5, for which, in the assay with GST-MLK3 SH3(43–104), the binding entry is given as “no binding”.

B6: phage-displayed MIP, alanine replacement at Thr-16 (peptide)
peptide: AIRINPNGTWSRQAEAVES
Take B6: the binding entry with GST-MLK3 SH3(43–104) is on record as “binds”.

B7: phage-displayed MIP, alanine replacement at Ser-19 (peptide)
peptide: AIRINPNGTWSRQAETVEA
For the molecule B7, the binding result with GST-MLK3 SH3(43–104) is given as “binds”.

B8: MLK3 SH3(41–105)-MIP(1–13)W10A fusion protein (protein, UniProt Q16584 41-105)
chain: YANPVWTALFDYEPSGQDELALRKGDRVEVLSRDAAISGDEGWWAGQVGGQVGIFPSNYVSRGGGAIRINPNGTASRQ
Regarding B8, the binding entry in assay [2] is “no binding”.

B9: MLK3 SH3(41–105)-MIP(1–13)R12A fusion protein (protein, UniProt Q16584 41-105)
chain: YANPVWTALFDYEPSGQDELALRKGDRVEVLSRDAAISGDEGWWAGQVGGQVGIFPSNYVSRGGGAIRINPNGTWSAQ
For the molecule B9, the binding entry in assay [3] was “no binding”.

B10: phage-displayed MIP, alanine replacement at Gln-13 (peptide)
peptide: AIRINPNGTWSRAAETVES
As for B10, in the assay with GST-MLK3 SH3(43–104), the binding result was “binds”.

B11: phage-displayed MIP, alanine replacement at Val-17 (peptide)
peptide: AIRINPNGTWSRQAETAES
Turning to B11, the binding result with GST-MLK3 SH3(43–104) is on record as “binds”.

B12: phage-displayed MIP, alanine replacement at Glu-18 (peptide)
peptide: AIRINPNGTWSRQAETVAS
Turning to B12, the binding result with GST-MLK3 SH3(43–104) is listed as “binds”.
